# Results taken from the supplement of paper PMC6531468.
# The other results are listed elsewhere or left out. Read counts after selection give these values, which scatter widely. Scores sum up all selected molecules that hold the word; the word was not tested alone.
# Columns and labels:
# Assay in all cases: 6-mer SELEX enrichment z-score vs GST control; IMP3 is the RNA-binding protein IGF2BP3; higher = more enriched by binding
# IMP3 KH1-4 = settings: construct: KH1-4 (164-579); SELEX round: R4
# Procedure: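 SELEX-seq with GST-tagged IMP3 KH1-4 (Pro164-Lys579) and an N40 RNA pool, round 4. 6-mer z-score of sequence-tag enrichment normalised to the corresponding GST SELEX round; RNA k-mers written as DNA (T for U).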
# IMP3 RRM1-2 = settings: construct: RRM1-2 (1-163); SELEX round: R2
# Procedure: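 SELEX-seq with GST-tagged IMP3 RRM1-2 (Met1-Asn163) and an N40 RNA pool, round 2. 6-mer enrichment z-score normalised to GST SELEX. RNA written as DNA (T = U).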
# IMP3 full-length = IMP3 full-length (UniProt O00425); settings: construct: FL IMP3 (1-579); SELEX round: R4
# Procedure: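 SELEX-seq with GST-tagged full-length IMP3 and an N40 RNA pool, round 4. Each 6-mer is scored as an enrichment z-score of sequence tags containing it, normalised to the matching GST SELEX round. RNA written as DNA (T = U).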
# IMP3 KH1-2 = settings: construct: KH1-2 (164-376); SELEX round: R4
# Procedure: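 SELEX-seq with GST-tagged IMP3 KH1-2 (Pro164-Phe376) and an N40 RNA pool, round 4 (stringent 300/600 mM KCl washes). 6-mer z-score of sequence-tag enrichment normalised to the corresponding GST SELEX round; RNA k-mers written as DNA (T for U).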
# IMP3 KH3-4 = settings: construct: KH3-4 (377-579); SELEX round: R4
# Procedure: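 SELEX-seq with GST-tagged IMP3 KH3-4 (Pro377-Lys579) and an N40 RNA pool, round 4. 6-mer z-score of sequence-tag enrichment normalised to the corresponding GST SELEX round; RNA k-mers written as DNA (T for U).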
# Chain of UniProt O00425 (O00425 whole entry): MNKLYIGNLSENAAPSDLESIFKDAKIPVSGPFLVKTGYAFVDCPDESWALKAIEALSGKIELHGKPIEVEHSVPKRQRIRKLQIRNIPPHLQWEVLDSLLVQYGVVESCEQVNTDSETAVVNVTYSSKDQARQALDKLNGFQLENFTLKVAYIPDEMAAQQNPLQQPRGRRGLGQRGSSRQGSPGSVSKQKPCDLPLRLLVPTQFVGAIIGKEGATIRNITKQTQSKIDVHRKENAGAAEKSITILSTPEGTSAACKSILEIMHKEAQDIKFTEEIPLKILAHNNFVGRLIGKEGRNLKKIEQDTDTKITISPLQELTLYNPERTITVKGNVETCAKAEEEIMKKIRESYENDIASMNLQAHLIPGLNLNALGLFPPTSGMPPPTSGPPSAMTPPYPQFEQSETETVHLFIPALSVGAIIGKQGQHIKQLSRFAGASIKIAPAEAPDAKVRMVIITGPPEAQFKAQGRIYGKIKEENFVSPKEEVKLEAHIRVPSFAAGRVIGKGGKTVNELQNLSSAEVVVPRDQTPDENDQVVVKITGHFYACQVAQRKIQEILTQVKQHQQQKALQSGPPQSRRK
# Chain of IMP3 RRM1-2 (chain, as listed by the source): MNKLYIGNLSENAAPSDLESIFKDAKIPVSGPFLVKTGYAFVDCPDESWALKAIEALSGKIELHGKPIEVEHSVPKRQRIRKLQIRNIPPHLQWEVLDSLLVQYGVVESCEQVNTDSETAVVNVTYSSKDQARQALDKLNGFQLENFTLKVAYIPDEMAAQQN
# Chain of IMP3 KH1-2 (chain, as listed by the source): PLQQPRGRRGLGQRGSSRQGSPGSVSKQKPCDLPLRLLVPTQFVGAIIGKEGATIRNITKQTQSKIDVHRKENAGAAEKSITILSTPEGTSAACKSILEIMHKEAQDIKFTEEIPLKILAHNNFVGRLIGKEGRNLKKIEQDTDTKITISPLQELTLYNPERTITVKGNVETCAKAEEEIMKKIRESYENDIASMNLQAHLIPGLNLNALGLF
# Chain of IMP3 KH1-4 (chain, as listed by the source): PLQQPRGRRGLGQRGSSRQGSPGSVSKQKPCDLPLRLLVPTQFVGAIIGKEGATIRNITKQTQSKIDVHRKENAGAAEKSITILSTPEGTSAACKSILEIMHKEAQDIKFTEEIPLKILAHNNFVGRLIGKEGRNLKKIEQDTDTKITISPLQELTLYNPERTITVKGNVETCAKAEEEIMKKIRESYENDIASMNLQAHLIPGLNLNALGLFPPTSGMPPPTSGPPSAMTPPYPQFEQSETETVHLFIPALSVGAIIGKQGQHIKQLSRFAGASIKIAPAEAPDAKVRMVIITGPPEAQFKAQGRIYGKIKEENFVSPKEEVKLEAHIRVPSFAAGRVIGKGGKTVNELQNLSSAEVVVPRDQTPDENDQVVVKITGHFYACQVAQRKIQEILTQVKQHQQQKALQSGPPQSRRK
# Chain of IMP3 KH3-4 (chain, as listed by the source): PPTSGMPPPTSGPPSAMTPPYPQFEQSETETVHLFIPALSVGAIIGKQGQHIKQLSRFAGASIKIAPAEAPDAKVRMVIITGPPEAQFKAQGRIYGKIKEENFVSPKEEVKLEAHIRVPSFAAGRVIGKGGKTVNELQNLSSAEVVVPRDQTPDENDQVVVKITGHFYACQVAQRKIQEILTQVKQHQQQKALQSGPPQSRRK
Sequence,6-mer SELEX enrichment z-score (IMP3 KH1-4),6-mer SELEX enrichment z-score (IMP3 RRM1-2),6-mer SELEX enrichment z-score (IMP3 full-length),6-mer SELEX enrichment z-score (IMP3 KH1-2),6-mer SELEX enrichment z-score (IMP3 KH3-4)
GGGCTA,-0.178,0.217,0.185,-0.039,0.196
AATTTG,0.466,-0.343,-0.404,0.306,0.926
ATGCAA,0.781,0.058,0.443,0.668,0.779
CCTTTG,0.011,-0.084,-0.373,-0.127,-0.216
GCAAAC,-0.29,0.599,0.53,-0.299,-0.556
CCGACA,-1.29,-0.432,-0.4,-1.04,-1.63
TTATAC,1.02,0.121,0.092,1.07,1.33
GGGCGC,-0.795,0.15,0.284,-0.372,-0.523
GCAATT,0.651,0.217,0.42,0.549,0.837
CGTCTT,-0.432,0.52,0.019,-0.295,-0.214
TGAATA,1.38,-0.851,-0.341,0.985,2.1
AGTAGG,0.254,0.346,0.258,0.22,0.416
AACCTC,-1.4,-0.486,-1.34,-1.27,-1.84
CAGCTA,-0.181,0.274,0.175,-0.088,-0.205
TCTTTT,0.814,0.559,0.459,0.782,0.878
TTCTTA,0.581,0.365,0.235,0.574,0.689
GGCGCG,0.343,0.35,0.939,0.485,0.36
CGGGCC,-1.17,-0.385,0.349,-0.841,-1.04
TGTTCG,-0.098,0.331,-0.081,-0.136,-0.081
CTGTGT,0.029,0.163,-0.144,-0.009,-0.029

Sequence,6-mer SELEX enrichment z-score (IMP3 KH1-4),6-mer SELEX enrichment z-score (IMP3 RRM1-2),6-mer SELEX enrichment z-score (IMP3 full-length),6-mer SELEX enrichment z-score (IMP3 KH1-2),6-mer SELEX enrichment z-score (IMP3 KH3-4)
CACCTT,-0.103,0.152,-0.22,-0.094,-0.412
TAAACA,1.29,0.398,0.157,1.43,2.1
TCGTTG,-0.325,0.275,-0.165,-0.333,-0.214
GGGCCG,-0.069,-0.24,0.646,0.441,0.125
CTTGAC,-1.12,-0.311,-0.896,-1.13,-1.14
AAATCT,-0.215,-0.524,-0.639,-0.232,-0.228
GAAACA,0.112,-0.185,0.116,0.305,0.625
TGGCTC,-0.116,0.501,0.356,-0.016,0.023
ACTTTG,0.064,-0.002,-0.273,0.001,0.112
CAGTTA,0.48,0.228,0.27,0.385,0.321
ACACGA,-0.445,0.591,0.203,-0.308,-0.573
ACCCAC,-2.24,-0.459,-1.73,-2.08,-2.96
GGTACT,-0.719,0.269,-0.208,-0.604,-0.537
TGAGAT,0.43,-0.343,-0.203,0.271,0.721
GTCGGT,0.769,0.609,1.07,0.73,0.8
AGAAAC,-0.293,-1.16,-1.03,-0.165,0.221
CCGCCC,-0.828,-0.762,-0.662,-0.526,-1.62
AGGTCA,0.367,0.158,0.581,0.174,0.365
TACTGC,0.33,0.054,-0.085,0.496,0.102
CCACAT,0.984,1.5,1.21,0.933,0.192

Sequence,6-mer SELEX enrichment z-score (IMP3 KH1-4),6-mer SELEX enrichment z-score (IMP3 RRM1-2),6-mer SELEX enrichment z-score (IMP3 full-length),6-mer SELEX enrichment z-score (IMP3 KH1-2),6-mer SELEX enrichment z-score (IMP3 KH3-4)
TAAGTC,0.355,-0.013,0.123,0.15,0.35
CGCATG,0.308,1.1,0.904,0.232,0.11
CACCGC,0.442,0.195,0.794,0.828,-0.517
CATATA,2.55,1.15,1.35,2.43,2.89
TTCAAG,-0.074,0.519,0.248,-0.142,0.068
GCTTTT,0.26,0.382,0.162,0.368,0.473
ACTACT,0.458,0.259,-0.368,0.605,0.398
CCGAGA,-2.31,-1.56,-1.45,-2.05,-2.08
GGTTTA,0.18,0.271,0.018,0.11,0.508
TGACAA,0.489,-0.739,-0.207,0.308,0.454
CTAGAT,0.278,-0.171,-0.146,0.169,0.421
GCGTTT,-0.834,0.476,-0.2,-0.62,-0.475
TATACA,2.16,0.596,0.772,2.31,2.49
ATTCCA,0.883,0.437,0.162,0.822,0.412
TATGGA,0.887,-0.125,0.084,0.533,1.03
AGCGCG,-1.05,-0.071,-0.084,-0.916,-0.733
GATTCC,0.195,-0.507,-0.413,0.053,-0.114
CGGAAT,-0.007,-0.526,-0.317,-0.175,0.114
GGAGCA,0.349,0.468,0.831,0.317,0.279
TCACTT,0.982,1.15,0.801,1.06,0.74
